Screen size: about 310,000 compounds; about 2,200 (0.71%) showed an effect of 50% or more. The effect is printed as a negative number. This is one part of the list.
Biological target: human ether-à-go-go-related gene (hERG) potassium channel (human, UniProt Q12809)
Experiment: primary screen, population patch clamp on CHO cells stably expressing hERG

Sequence of human ether-à-go-go-related gene (hERG) potassium channel (Q12809 whole entry, looked up): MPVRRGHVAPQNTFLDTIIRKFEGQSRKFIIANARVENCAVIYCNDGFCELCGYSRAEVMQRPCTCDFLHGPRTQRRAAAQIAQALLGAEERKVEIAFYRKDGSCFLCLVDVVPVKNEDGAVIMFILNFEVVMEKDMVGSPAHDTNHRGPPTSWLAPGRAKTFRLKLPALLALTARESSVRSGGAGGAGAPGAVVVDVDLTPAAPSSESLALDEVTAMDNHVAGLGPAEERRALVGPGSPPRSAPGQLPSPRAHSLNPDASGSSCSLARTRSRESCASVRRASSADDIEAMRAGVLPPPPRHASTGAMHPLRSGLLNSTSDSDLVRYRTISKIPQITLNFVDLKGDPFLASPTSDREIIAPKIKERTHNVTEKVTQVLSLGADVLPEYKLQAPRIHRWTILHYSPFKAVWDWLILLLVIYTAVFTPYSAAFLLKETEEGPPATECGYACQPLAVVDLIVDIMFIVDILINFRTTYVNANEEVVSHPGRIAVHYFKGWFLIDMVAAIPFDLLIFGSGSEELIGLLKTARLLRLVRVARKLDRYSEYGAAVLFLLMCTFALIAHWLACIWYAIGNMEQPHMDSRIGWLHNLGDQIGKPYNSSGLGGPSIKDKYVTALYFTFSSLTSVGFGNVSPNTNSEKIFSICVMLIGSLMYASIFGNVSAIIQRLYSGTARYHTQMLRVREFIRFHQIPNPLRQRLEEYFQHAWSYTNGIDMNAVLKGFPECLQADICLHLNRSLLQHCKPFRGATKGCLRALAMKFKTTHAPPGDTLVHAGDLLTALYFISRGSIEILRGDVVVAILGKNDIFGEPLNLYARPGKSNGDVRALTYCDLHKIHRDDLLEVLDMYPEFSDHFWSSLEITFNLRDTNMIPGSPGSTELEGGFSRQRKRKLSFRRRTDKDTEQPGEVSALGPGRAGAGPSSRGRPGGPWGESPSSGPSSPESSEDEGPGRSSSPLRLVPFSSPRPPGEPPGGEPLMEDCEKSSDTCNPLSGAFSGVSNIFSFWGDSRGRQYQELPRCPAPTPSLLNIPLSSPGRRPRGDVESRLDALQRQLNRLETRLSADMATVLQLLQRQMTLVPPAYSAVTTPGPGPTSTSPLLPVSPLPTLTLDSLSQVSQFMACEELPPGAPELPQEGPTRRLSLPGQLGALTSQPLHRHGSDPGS

Row | Structure (SMILES) | hERG current change (%, negative = inhibition) at 1uM [%]
1 | Cc1ccccc1SCC(=O)NNC(=O)c1ccncc1 | 3.18
2 | N=c1c2c(-c3ccccc3)c(-c3ccccc3)n(Cc3ccco3)c2ncn1CCCN1CCOCC1 | -91.3
3 | CCCCNS(=O)(=O)c1ccc(OCC(=O)N2CCN(Cc3ccc4c(c3)OCO4)CC2)cc1 | -3.5
4 | OC(CNc1nc2ccccc2s1)c1ccccc1 (stereo not drawn) | 3.87
5 | Cc1ccccc1C(O)c1ccccn1 (stereo not drawn) | 17.2
6 | C=C(C)[C@H]1CC=C(C)C(=O)C1 | 14.4
7 | N#Cc1ccc(OCC(=O)OCC(=O)Nc2ccc(N3CCOCC3)cc2)cc1 | -0.974
8 | CC(C)N(C(=O)Cn1c(Cl)nc2ccccc21)C(C)C | 7.66
9 | O=C(CN1C(=O)C2C3C=CC(C3)C2C1=O)NCCc1ccccc1 (stereo not drawn) | 11.7
10 | N/C(=N\OC(=O)c1cccc2ccccc12)c1cccc([N+](=O)[O-])c1 | 10.2
11 | O=C(NC(=S)NCc1nc2ccccc2[nH]1)c1ccc(F)cc1 | 6.9
12 | O=C(CSc1ncccn1)n1c2c(c3ccccc31)CCCC2 | 7.64
13 | O=C1C=C(c2ccccc2)C[C@@H](c2ccc3c(c2)OCO3)C1 | 11.4
14 | Oc1cccc2cnccc12 | 7.8
15 | C/C(O)=c1/ccc2cccc3nc(C)nc1c23 | 7.91
16 | CC(=O)Nc1ccc2nc(SCC(=O)N3CCOCC3)sc2c1 | 17.4
17 | CC(=O)N1CCN(S(=O)(=O)c2cccc(C(=O)Nc3ccccc3N3CCOCC3)c2)CC1 | 7.37
18 | COc1ccc(CCCC(=O)O)c(C)c1 | 20.9
19 | Cl.O=C(CN1CCCCC1)NCC1(c2ccccc2)CCCC1 | 5.17
20 | CCCCc1nnc(NC(=O)CCS(=O)(=O)Cc2ccccc2)s1 | 15.5
21 | O=C(COc1ccc(Cl)cc1)NCc1nnc(SCC(=O)NCC2CCCO2)o1 (stereo not drawn) | 10.9
22 | CCN(CC)S(=O)(=O)c1cc(-c2nnc(-c3ccc(Br)cc3)o2)ccc1Cl | -1.98
23 | CC(=O)NC1CC2CCC(C1)N2Cc1ccc(C)cc1 (stereo not drawn) | -0.57

Row | Structure (SMILES) | hERG current change (%, negative = inhibition) at 1uM [%]
24 | COc1ccccc1Nc1ncnc2c1oc1ccccc12.Cl | 16.8
25 | CCn1c(N2CCN(Cc3ccc([N+](=O)[O-])cc3)CC2)nc2ccccc21.Cl | -81.2
26 | CCc1nn2c(NCCOC)cc(C)nc2c1-c1ccc(F)cc1 | 5.3
27 | N=C1C(c2ccccc2)=C(O)C2CCc3ccccc3N12 (stereo not drawn) | 12.2
28 | Cc1cccc(NC(=O)CN(c2ccc(C(C)C)cc2)S(=O)(=O)c2c(C)nn(C)c2C)n1 | 9.84
29 | Cc1ccc(/C=N/n2cc(-c3ccccc3)[nH]c2=S)s1 | 12.3
30 | CCOC(=O)c1ccccc1NC(=O)C1CCCO1 (stereo not drawn) | 11.3
31 | CSc1nc(-c2ccc(Cl)cc2)c(C#N)c(=O)n1C | 5.02
32 | O=C(NCCS(=O)(=O)c1ccc(Br)cc1)c1ccccc1Cl | -3.15
33 | CCCc1ccccc1OCCNC(=O)c1cc(=O)n(C)c(=O)n1C | 3.36
34 | O=C(CSc1nncc2ccccc12)Nc1ccc(F)cc1 | 15.4
35 | CCCN1CCC2(CC1)NC(CO)(CO)CO2 | 12.7
36 | Cc1ccc(C(=O)N2CCOCC2)c(F)c1F | 3.08
37 | O=C(Cc1ccc(Cl)cc1)NCC(=O)N1CCCCCC1 | 4.89
38 | Oc1ccc(C[C@H]2NCCc3cc(O)c(O)cc32)cc1O | 2.49
39 | O=C(Nc1cccc(-n2cnnn2)c1)c1cc(Cl)ccc1Cl | 10.6
40 | O=C(NC1CCCC1)C(c1ccc(F)cc1)N(C(=O)Cc1cccs1)c1ccc2c(c1)OCCO2 (stereo not drawn) | 57.9
41 | NC(=O)COc1ccc(Nc2nnc(-c3ccc(O)cc3)c3ccccc23)cc1 | 2.61
42 | CC1(C)Cc2c(sc(NC(=O)C(=O)N3CCOCC3)c2C#N)CO1 | 13.8
43 | CCc1ccc(NC(=O)CSc2nc3ccccc3c(=O)n2CCN2CCOCC2)cc1 | -10.3
44 | O=C(CN1CCN(c2ccccc2)CC1)Nc1ccc(F)cc1 | -21.6
45 | CCOC(=O)/C(C#N)=C/c1c(N2CCN(C)CC2)nc2c(C)cccn2c1=O | 8.32
46 | CC(C(=O)N1CCCC1)N(C)CC(=O)Nc1cccc(F)c1 (stereo not drawn) | 11.9

Row | Structure (SMILES) | hERG current change (%, negative = inhibition) at 1uM [%]
47 | Cc1nn(-c2ccccc2)c(NC(=O)c2cccs2)c(-c2ccccc2)c1=O | 15.1
48 | c1ccc(CNc2c3c(nc4ncnn24)CCC3)cc1 | 10.1
49 | c1cc2c(nn1)CCc1nonc1-2 | 12.9
50 | CCN1C(=O)[C@H]2[C@@H](c3ccc(C)cc3)N3C(=O)N(c4cccc(Br)c4)C(=O)[C@@]3(CC)[C@H]2C1=O | 11.9
51 | COc1ccc(NC(=O)NNC(=O)c2cc3ccccc3cc2O)cc1 | 12.8
52 | CC(=O)Oc1ccc2c(=O)c(N3C(=O)c4ccccc4C3=O)c(C)oc2c1 | 7.79
53 | COc1ccc(S(=O)(=O)N(Cc2ccccc2)c2ccccc2C(=O)Nc2ccccc2C(=O)NCc2ccco2)cc1 | 12.6
54 | COc1cc(C(=O)NNc2nc3cc4c(cc3s2)OCO4)cc(OC)c1OC | 17
55 | CC(=O)N1c2ccc(S(=O)(=O)N3CCCC(C(=O)Nc4cccc(Cl)c4)C3)cc2CC1C (stereo not drawn) | 12.5
56 | CCOc1ccc(NC(=O)C(CC(=O)O)Cc2ccccc2)cc1 (stereo not drawn) | 13.8
57 | COC(=O)c1ccccc1NC(=O)COc1ccc(S(=O)(=O)NC(C)C)cc1 | 17.3
58 | CC(C)(CC(=O)O)CC(=O)N1CCN(c2nc3ccc(Cl)cc3s2)CC1 | 3.65
59 | COc1ccc(NC(=O)c2ccccc2NC(=O)C2CCCO2)cc1 (stereo not drawn) | 15.3
60 | COC(=O)C(C)Sc1ncnc2c1c(-c1ccccc1)cn2-c1ccc(OC)cc1 (stereo not drawn) | 7.18
61 | COc1ccccc1Nc1nnc(SCc2cc(=O)n3ccsc3n2)s1 | 5.82
62 | Cc1c(NC(=O)c2c(O)c3ccccc3n(C)c2=O)c(=O)n(-c2ccccc2)n1C | 20.6
63 | CCS(=O)(=O)N1CCC(C(=O)NCc2ccc(F)cc2Cl)CC1 | 10.6
64 | COc1cc(C2CC(=O)Nc3ccccc3S2)cc(OC)c1OC (stereo not drawn) | -5.45
65 | CSc1ccc(S(=O)(=O)NCc2ccc(Cl)cc2Cl)cc1 | -7.26
66 | CCOc1ccc(CN2CCC(n3nccc3NC(=O)C3CC3)CC2)cc1CO | 7.17
67 | C#CC(CO)N(CCN(Cc1ccccc1)C(C#C)CO)Cc1ccccc1 (stereo not drawn) | 9.58
68 | O=C1CS/C(=N/N=C/c2ccccc2)N1c1ccc(O)cc1 | 16.1
69 | O=C(c1ccccc1F)N(Cc1ccc(F)cc1)C1CCS(=O)(=O)C1 (stereo not drawn) | 9.41

Row | Structure (SMILES) | hERG current change (%, negative = inhibition) at 1uM [%]
70 | N/C(=N\OS(=O)(=O)c1ccccc1)c1cccnc1 | 6.87
71 | Cc1ccc(Sc2cc(NCCCO)c([N+](=O)[O-])c3nonc23)cc1 | 5.43
72 | COc1ccc(Cc2nc(-c3ccc(-n4cccc4)cc3)no2)cc1OC | 3.64
73 | Cc1cc(C)cc(N(CC(=O)Nc2cccc(C)c2C)S(=O)(=O)c2c(C)[nH]c(=O)[nH]c2=O)c1 | 17.1
74 | CCCC(=O)OCC(=O)Nc1cc(C(C)(C)C)nn1-c1ccccc1 | 11.6
75 | COc1ccccc1N1CCN(C(=O)CNC(=O)c2ccc(Cl)cc2Cl)CC1 | 11.2
76 | COc1ccc(S(=O)(=O)N(CC(=O)NC2CC2)Cc2ccccc2)cc1 | 20.1
77 | Cc1ccc(C)c(NC(=O)Cc2ccc(S(=O)(=O)N3CCCCC3)s2)c1 | 0.363
78 | Cc1ccc(-n2c(CCC(=O)O)ccc2-c2cccs2)cc1 | 6.92
79 | O=c1cc(CSc2nnc(-c3cccnc3)n2-c2ccccc2F)nc2sccn12 | 9.55
80 | COc1ccc(C2=NCN(c3ccc(C)cc3)C(=S)N2)cc1 | 11.8
81 | Cc1cccc(NS(=O)(=O)c2cccc(C(=O)NCCCN3CCCC3=O)c2)c1 | 7.25
82 | O=C(CNc1cccc([N+](=O)[O-])c1)NCCCc1ccccc1 | -29.5
83 | CC(C)(C)n1nnnc1C(c1ccc(Cl)cc1)N1CCSCC1 (stereo not drawn) | -2.57
84 | COC(=O)c1ccc(NC(CC(C)C)C(=O)OC)c([N+](=O)[O-])c1 (stereo not drawn) | -0.222
85 | O/N=C1/CC/C(=N\O)c2nn(-c3ccccc3)nc21 | 11.5
86 | CC1CN(C(=O)COC(=O)c2ccc(Cl)c(S(=O)(=O)N3CCCCC3)c2)CC(C)O1 (stereo not drawn) | 2.27
87 | COc1ccccc1N1C(=O)CC(=O)NC1=O | 16.9
88 | COc1ccc(S(=O)(=O)Nc2ccccc2C)cc1C(=O)N1CCOCC1 | 19.8
89 | Cc1cccc(C2c3[nH]c4ccccc4c3CCN2C(=O)c2ocnc2C)n1 (stereo not drawn) | 8.04
90 | CCN(CC)C(=S)SC1CCCCN(C(=O)c2ccc(F)cc2)C1=O (stereo not drawn) | 9.25

— publication PMC4336329 (PLoS ONE, 2015)
